# Laboratory results taken from PubChem BioAssay AID686978 (National Center for Advancing Translational Sciences (NCATS), 2013).
# Where “and” joins values, the source holds several entries; their conditions need not be identical. Identical values can stand only once. In all, about 420,000 compounds went through this assay and about 64,000 (15%) were called active. Inconclusive means that the source gave no clear call. Such entries were picked first, then a sample of the others. The call rests on the fitted dose curve; in most records, active means well fitted inhibition curve with a large enough effect; inconclusive means small, poorly fitted or top-dose-only effect; inactive means flat fitted curve, though single readings scatter. Where the call is inconclusive, the potency comes from a doubtful curve fit.
# Experiment: qHTS for Inhibitors of human tyrosyl-DNA phosphodiesterase 1 (TDP1): qHTS in cells in absence of CPT; further: nearly all actives have a fitted effect of over 55% in size
# Settings: DT40 Tdp1-/- hTDP1 cells, no CPT, ATP luminescence, 48 h; activity change, negative = growth inhibition: at 46.2 µM (top of the series) unless noted
# Method in brief: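 No-CPT arm: Tdp1-/-;hTDP1 DT40 cells (400/well) plus compounds, incubated ≥48 hr at 37 °C. Readout CellTiter-Glo luminescence.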
# On the % scale 0 is the no-effect control and ±100 the full control effect; potency means the concentration at half of the fitted maximal effect; tags describe the fitted curve by direction and shape.
SMILES,Potency,"activity change, negative = growth inhibition"
CCn1c(SCC(=O)N2CCCC(C)C2)nnc1-c1ccc(S(=O)(=O)N2CCN(C)CC2)cc1 (configuration not stated),inactive,–
O=C(O)c1ccc(Nc2c3ccccc3nc3ccccc23)cc1,active: 2.06 µM,–
Clc1ccc(-c2nnc(-c3ccccc3)c(N3CCSCC3)n2)cc1,"inconclusive: 25.9 µM [inhibitor, single point]",–
Oc1ccc(O)cc1,"inconclusive: 16.4 µM [inhibitor, single point] and inconclusive: 29.9 µM [inhibitor, single point]",–
CC1=CC(C)(C)N(C(=O)CSc2nnc(-c3ccc(C)cc3)o2)c2ccc(C)cc21,active: 18.4 µM,–
O=C1CC(N2CCOCC2)=NN1c1ccc([N+](=O)[O-])cc1,active: 25.9 µM,–
Cc1cc(C(=O)CN2C(=O)CCC2=O)c(C)n1Cc1ccccc1,"inconclusive: 18.4 µM [inhibitor, single point]",–
CC(C)C(=O)Nc1ccc(C(=O)NNC(=S)NC(=O)c2cccs2)cc1,"inconclusive: 16.4 µM [inhibitor, single point]",–
CCOc1ccc(C(=O)NCC(=O)NNC(=O)c2cc(C)oc2C)cc1OCC,inactive,–
O=C1c2ccccc2C(=O)c2c([N+](=O)[O-])ccc(O)c21,active: 20.6 µM,–
CN(CC(=O)Nc1ccc(Cl)c(C(F)(F)F)c1)C(=O)Cn1cc([N+](=O)[O-])ccc1=O,"inconclusive: 16.4 µM [inhibitor, partial curve]",–
COc1cc(CNc2ncnc3c2ncn3[C@H]2CN(Cc3cccc4ccccc34)C[C@@H](CO)O2)cc(OC)c1OC,active: 23.1 µM,–
OC[C@@H]1CN(Cc2cccc(C(F)(F)F)c2)C[C@H](n2cnc3c(NC4CC4)ncnc32)O1,"inconclusive: 29.1 µM [inhibitor, single point]",–
Cn1nc(C(C)(C)C)cc1C(=O)Sc1cccc(Br)c1,active: 10.3 µM,–
C[N+]1(CC(=O)c2ccc3c(c2)CCCC3)CCOCC1,inactive,–
Cc1ccc(OCC(=O)NNC(=O)c2ccoc2C)c(Br)c1,–,inconclusive: -36% [inhibitor]
Cc1ccc(-c2n[nH]c(=S)n2C)cc1,active: 16.4 µM,–
Cc1noc(C)c1CSCC(=O)Nc1nc2c(F)cc(F)cc2s1,active: 23.1 µM,–
C=C(c1ccc(OC)cc1)c1ccc(OC)cc1,"inconclusive: 18.4 µM [inhibitor, single point]",–
CN(Cc1ccc2nonc2c1)Cc1nc(CC2CC2)no1,inactive,–
CCOc1ccc(CNC(=O)c2ccc(-c3nc(CSc4ccc(C)cc4)c(C)o3)cc2)cc1,"inconclusive: 6.51 µM [inhibitor, single point]",–
Cc1cccc(CN2CCN(C3CN(Cc4cn(Cc5ccccc5F)nn4)S(=O)(=O)C3)CC2)c1 (configuration not stated),"inconclusive: 23.1 µM [inhibitor, single point]",–
CCOC(=O)CSc1c(-c2ccc(Cl)cc2)[nH]c2ccccc12,"inconclusive: 29.1 µM [inhibitor, single point]",–
CCN(Cc1ccccc1)C(=O)Cn1c(=O)n(-c2ccc(OC)cc2OC)c(=O)c2c(C)c(C)sc21,"inconclusive: 29.1 µM [inhibitor, single point] and inconclusive: 11.6 µM [inhibitor, partial curve]",–

SMILES,Potency,"activity change, negative = growth inhibition"
CC(=O)c1ccc(Nc2nc(C(N)CCc3ccccc3)cs2)cc1 (configuration not stated),active: 16.4 µM,–
O=C(COC(=O)c1ccc(F)cc1F)c1ccc[nH]1,inactive,–
CCOc1ccc(NC(=O)c2c(NC(=O)Cc3ccccc3)sc3c2CCCC3)cc1,"inconclusive: 16.4 µM [inhibitor, single point]",–
COc1ccc(NC(=O)c2cc(C3CCCCN3C(=O)c3ccc4c(c3)CCO4)on2)c(C)c1 (configuration not stated),"inconclusive: 0.58 µM [inhibitor, full curve, poor fit]",–
C=CCn1cccc(C(=O)Nc2ccc(C)cc2)c1=O,inactive,–
Cc1ccc(S(C)(=O)=O)cc1C(=O)NC(C)C1CC2CCC1C2 (configuration not stated),inactive,–
Cc1cc([N+](=O)[O-])cc([N+](=O)[O-])c1NCC(C)C,"inconclusive: 14.6 µM [inhibitor, partial curve, poor fit]",–
COc1cc(C(=O)NCc2ccc(C)cc2)ccc1OCc1c(C)noc1C,"inconclusive: 32.6 µM [inhibitor, single point]",–
COc1ccc(C(NC(=O)CN2C(=O)NC3(CCc4ccccc43)C2=O)c2ccccc2)cc1 (configuration not stated),"inconclusive: 6.51 µM [inhibitor, single point]",–
S=c1[nH]nc(Nc2cccc3ccccc23)s1,inactive,–
COc1ccc(S(=O)(=O)N2CCCCCC2)cc1C(=O)N(C)CC(=O)Nc1ccccc1Cl,active: 20.6 µM,–
CC(C)(C)NCC(O)CON=C1c2ccccc2-c2ccccc21 (configuration not stated),"inconclusive: 18.4 µM [inhibitor, single point]",–
CC(C)(C)Cc1c(-c2ccc(Cl)cc2)nc2c(Cl)cc(C(F)(F)F)cn12,"inconclusive: 16.4 µM [inhibitor, partial curve]",–
Cc1nn(C)c(C)c1CN(C)C(=O)c1cc2n(n1)C(C(F)(F)F)CC(c1cccs1)N2 (configuration not stated),active: 16.4 µM,–
O=C(c1cn(-c2ccccc2)nc1-c1ccc(Br)cc1)N1CCOCC1,inactive,–
COc1ccccc1CNC(=O)CSc1ccc(-c2ccccn2)nn1,"inconclusive: 29.1 µM [inhibitor, single point]",–
Cn1c(Oc2ccccc2)c(C=O)c2ccccc21,"inconclusive: 14.6 µM [inhibitor, partial curve]",–
O=C1CSC(=Nc2ccccc2Cl)N1,inactive,–
CCOc1ccc2[nH]c(C(=O)N/N=C/c3ccccc3OC)cc2c1,active: 7.31 µM,–
CC(C)c1ccc(NC(=O)CCS(=O)(=O)c2ccc3c(c2)CC(=O)N3C)cc1,inactive,–
O=S(=O)(c1ccccc1)c1nnn2c1nc(NCc1ccccc1)c1cc(Cl)ccc12,"inconclusive: 25.9 µM [inhibitor, single point]",–
CCOc1cc(NC(=S)Nc2ccccc2OC)c(OCC)cc1NC(=O)c1ccccc1C,"inconclusive: 18.4 µM [inhibitor, single point]",–
CCOc1ccc(OCC)c(S(=O)(=O)n2cc(C)nc2CC)c1,"inconclusive: 29.1 µM [inhibitor, single point]",–
Cc1cc(OC(C)C(=O)NC2CC(C)(C)NC(C)(C)C2)c2c(C)c(C)c(=O)oc2c1 (configuration not stated),inactive,–

SMILES,Potency,"activity change, negative = growth inhibition"
CC1CCc2c(C(=O)NCc3ccco3)csc2C1 (configuration not stated),active: 14.6 µM,–
Cc1nn(Cc2ccccc2Cl)c(C)c1C(=O)Nc1nnc(C2CC2)s1,"inconclusive: 7.08 µM [inhibitor, full curve, poor fit]",–
Cc1cc(C(F)(F)F)nn1CC(=O)NCc1cccs1,inactive,–
Cc1ccc2[nH]c(=O)c(CN(C(=O)c3cccc([N+](=O)[O-])c3)C(C)C)cc2c1,"inconclusive: 18.4 µM [inhibitor, single point]",–
CCCCC(CC)CNC(=O)C(=O)c1ccccc1NC(C)=O (configuration not stated),"inconclusive: 25.9 µM [inhibitor, partial curve, poor fit]",–
COc1cc2c(cc1OC)C(C(=O)Nc1cc(OC)c(OC)c(OC)c1)C(c1cccnc1)N(C)C2=O (configuration not stated),inactive,–
CC(=O)c1ccc(NC(=O)C(C)n2c3ccccc3c3nc(=O)cc(C)n32)cc1 (configuration not stated),inactive,–
Fc1cnc(Cl)nc1NC1CCCCC1,"inconclusive: 20.6 µM [inhibitor, partial curve]",–
CCC(O)(CC)C(=O)N(Nc1ccc(C)cc1)c1ccc(C)cc1,"inconclusive: 32.6 µM [inhibitor, single point]",–
COc1ccc(C(c2nnnn2CC2CCCO2)N2CCN(c3cccc(C)c3C)CC2)cc1 (configuration not stated),active: 18.4 µM,–
CC(O)[C@@H](NC(=O)C1CCC(CNC(=O)[C@H](Cc2ccccc2)NC(=O)OC(C)(C)C)CC1)C(=O)O (some centres not stated),inactive,–
COc1cc(OC)c(-n2cc(-c3ccc(OC)c(OC)c3)[nH]c2=S)cc1Cl,inactive,–
CCOc1ccc(NC(=O)CC2C(=O)N(c3ccccc3)C(=S)N2Cc2ccccn2)cc1 (configuration not stated),"inconclusive: 8.2 µM [inhibitor, partial curve]",–
Cc1ccc2occ(CC(=O)Nc3ccc(S(=O)(=O)N4CCC(C)CC4)cc3)c2c1,"inconclusive: 20.6 µM [inhibitor, single point]",–
O=C(Nc1ccc(S(=O)(=O)N2CCc3ccccc32)cc1)c1ccco1,"inconclusive: 20.6 µM [inhibitor, partial curve, poor fit]",–
Cc1ccc(N(Cc2ccccc2)C(=O)Cc2ccc(S(=O)(=O)N3CCOCC3)s2)cc1,"inconclusive: 16.4 µM [inhibitor, single point]",–
CCOC(=O)C1=C(C)N(CCCC(=O)O)C(=O)NC1c1ccc(Cl)cc1Cl (configuration not stated),inactive,–
CCOc1ccccc1N1C(=O)c2ccccc2N/C1=C\N1CCN(C(=O)c2ccco2)CC1,"inconclusive: 35.5 µM [inhibitor, single point]",–
CCOC(=O)C1CCN(S(=O)(=O)c2ccc(OCC(=O)OC)cc2)CC1,inactive,–
COc1ccccc1C1=NOC(C)(c2nnc(Cc3ccccc3)o2)C1 (configuration not stated),inactive,–
O=C(Nc1ccccc1)NC1CCCCCCC1,active: 29.1 µM,–
CC(=O)/C(C#N)=C1\NC(=O)C(Cc2ccccc2)S1 (configuration not stated),"inconclusive: 1.16 µM [inhibitor, full curve]",–
COc1ccccc1N1CCN(C2CCCCC2NS(=O)(=O)c2ccc(Cl)cc2)CC1 (configuration not stated),active: 23.1 µM,–
CCC(C)NC(=O)Cn1c(=O)n(Cc2ccc(C(=O)NCc3ccc(C)cc3)cc2)c(=O)c2ccccc21 (configuration not stated),active: 23.1 µM,–
